Test results from a collection of fitness landscapes (doi:10.1016/j.celrep.2020.107928).
The full ranking holds about 81,000 sequences; the median of “one-hybrid fitness for binding parS DNA” is about -0.17, and the highest 2% start at about 0.51. Some of the results follow.

B1: Caulobacter ParB omega fusion; a variant is named by its letters at X, in order, B8GW30 (parent)
chain: MESVVVGEPGMSEGRRGLGRGLSALLGEVDAAPAQAPGEQLGGSREAPIEILQRNPDQPRRTFREEDLEDLSNSIREKGVLQPILVRPSPDTAGEYQIVAGERAWRAAQRAGLKTVPIMVRELDDLAVLEIGIIENVQRADLNVLEEALSYKVLMEKFERTQENIAQTIGKSXSHVANXMRLLXLPDEVQSYLVSGELTAXHARAIAAAADPVALAKQIIEGGLSVRETEALARKAPNLSAGKSKGGRPPRVKDTDTQALESDLSSVLGLDVSIDHRGSTGTLTITYATLEQLDDLCNRLTRGI

Variants of: B1
Assay: one-hybrid fitness for binding parS DNA (scaled: cognate 1, non-cognate 0); higher = stronger binding
Conditions: with parS DNA site
Procedure, shortened: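 Caulobacter ParB libraries with four specificity codons randomised were screened by bacterial one-hybrid selection in the E. coli USO strain, using a HIS3 reporter whose site lies 19 bp from the promoter. Selection ran for 48 hours at 37°C on M9 lacking histidine, with 0.1 mM IPTG and 5 mM 3-AT. Plasmids were Illumina-sequenced before and after selection, three replicate libraries were pooled, and variants with under 10 reads were dropped. Fitness is the log change in each variant's read ratio to wild type, rescaled against the cognate and non-cognate sites.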

| Variant | one-hybrid fitness for binding parS DNA |
| --- | --- |
| LPLD | ≤ 0.2 |
| PEIR | ≤ 0.2 |
| VMVS | ≤ 0.2 |
| NQPI | ≤ 0.2 |
| ELSS | ≤ 0.2 |
| SKIS | ≤ 0.2 |
| PWQL | ≤ 0.2 |
| SLQL | ≤ 0.2 |
| IYRH | ≤ 0.2 |
| SCAK | ≤ 0.2 |
| YYES | ≤ 0.2 |
| IAPW | ≤ 0.2 |
| HNSV | ≤ 0.2 |
| SMEW | ≤ 0.2 |
| ELVM | ≤ 0.2 |
| FSAT | ≤ 0.2 |
| ANDR | ≤ 0.2 |
| IRDT | ≤ 0.2 |
| KESS | ≤ 0.2 |
| VPNA | ≤ 0.2 |
| EEVT | ≤ 0.2 |
| IDSG | ≤ 0.2 |
| KPGG | ≤ 0.2 |
| IRCY | ≤ 0.2 |
| READ | ≤ 0.2 |
| RVAQ | ≤ 0.2 |

| Variant | one-hybrid fitness for binding parS DNA |
| --- | --- |
| VTKY | ≤ 0.2 |
| EPMC | ≤ 0.2 |
| EFGL | ≤ 0.2 |
| ASGS | ≤ 0.2 |
| VAET | ≤ 0.2 |
| TPPP | ≤ 0.2 |
| RSMR | ≤ 0.2 |
| RSRS | 0.913 |
| NVQG | ≤ 0.2 |
| MITG | ≤ 0.2 |
| KAMF | ≤ 0.2 |
| LIAV | ≤ 0.2 |
| LYMY | ≤ 0.2 |
| LNLH | ≤ 0.2 |
| RVMA | 0.545 |
| RGQH | ≤ 0.2 |
| SVWG | ≤ 0.2 |
| AFVD | ≤ 0.2 |
| VWST | ≤ 0.2 |
| THKQ | ≤ 0.2 |
| PWPI | ≤ 0.2 |
| PQMT | ≤ 0.2 |
| EEHL | ≤ 0.2 |
| HAFE | ≤ 0.2 |
| SGLI | ≤ 0.2 |
| QHDD | ≤ 0.2 |

| Variant | one-hybrid fitness for binding parS DNA |
| --- | --- |
| SLIF | ≤ 0.2 |
| SFCC | ≤ 0.2 |
| HNIT | ≤ 0.2 |
| WKRK | ≤ 0.2 |
| GAFC | ≤ 0.2 |
| GQGC | ≤ 0.2 |
| IKNY | ≤ 0.2 |
| PKPL | ≤ 0.2 |
| RAHR | ≤ 0.2 |
| RQGP | ≤ 0.2 |
| SPQL | ≤ 0.2 |
| FKND | ≤ 0.2 |
| PMPT | ≤ 0.2 |
| QTGA | ≤ 0.2 |
| HYVM | ≤ 0.2 |
| THWY | ≤ 0.2 |
| QGGV | ≤ 0.2 |
| RLED | ≤ 0.2 |
| DTHR | ≤ 0.2 |
| NSKC | ≤ 0.2 |
| GFIG | ≤ 0.2 |
| ENIC | ≤ 0.2 |
| RNRL | ≤ 0.2 |
| HCTC | ≤ 0.2 |
| SVPQ | ≤ 0.2 |
| VSGC | ≤ 0.2 |

| Variant | one-hybrid fitness for binding parS DNA |
| --- | --- |
| PWED | ≤ 0.2 |
| VVRC | ≤ 0.2 |
| RDWC | ≤ 0.2 |
| NLLR | ≤ 0.2 |
| QMAY | ≤ 0.2 |
| DNER | ≤ 0.2 |
| AYSL | ≤ 0.2 |
| GGNQ | ≤ 0.2 |
| VAAA | ≤ 0.2 |
| PMYY | ≤ 0.2 |
| GQHS | ≤ 0.2 |
| LLNR | ≤ 0.2 |
| PDSC | ≤ 0.2 |
| ASRS | ≤ 0.2 |
| ENHE | ≤ 0.2 |
| YTTA | ≤ 0.2 |
| SKDR | ≤ 0.2 |
| IAMA | ≤ 0.2 |
| CDSG | ≤ 0.2 |
| GCEG | ≤ 0.2 |
| VCNT | ≤ 0.2 |
| FSLL | ≤ 0.2 |
| DDQG | ≤ 0.2 |
| PQHI | ≤ 0.2 |
| SMDE | ≤ 0.2 |
| YKNG | ≤ 0.2 |

| Variant | one-hybrid fitness for binding parS DNA |
| --- | --- |
| ANYV | ≤ 0.2 |
| TANS | ≤ 0.2 |
| MVAN | ≤ 0.2 |
| LIVR | ≤ 0.2 |
| ANTI | ≤ 0.2 |
| QGTW | ≤ 0.2 |
| QHCE | ≤ 0.2 |
| SHQF | ≤ 0.2 |
| NGQY | ≤ 0.2 |
| PTIN | ≤ 0.2 |
| LMLE | ≤ 0.2 |
| DCGC | ≤ 0.2 |
| QNHI | 0.202 |
| TCFT | ≤ 0.2 |
| CHLV | ≤ 0.2 |
| GGRE | ≤ 0.2 |
| DHYY | ≤ 0.2 |
| PVNY | ≤ 0.2 |
| SDHV | ≤ 0.2 |
| WVFT | ≤ 0.2 |
| GVWG | ≤ 0.2 |
| SFKT | ≤ 0.2 |
| FTQR | ≤ 0.2 |
| YTNM | ≤ 0.2 |
| WCAK | ≤ 0.2 |
| TDPS | ≤ 0.2 |

| Variant | one-hybrid fitness for binding parS DNA |
| --- | --- |
| QSWW | ≤ 0.2 |
| QYCC | ≤ 0.2 |
| YKTN | ≤ 0.2 |
| RSWF | ≤ 0.2 |
| RHDQ | ≤ 0.2 |
| RIHR | ≤ 0.2 |
| CMNY | ≤ 0.2 |
| RHVT | 0.637 |
| GGES | ≤ 0.2 |
| YMQK | ≤ 0.2 |
| KHNC | ≤ 0.2 |
| YMPC | ≤ 0.2 |
| DIVR | ≤ 0.2 |
| TKCR | ≤ 0.2 |
| EGVD | ≤ 0.2 |
| KLVF | ≤ 0.2 |
| EMVM | ≤ 0.2 |
| QCHW | ≤ 0.2 |
| EDYT | ≤ 0.2 |
| RYEC | 0.926 |
| CHPA | ≤ 0.2 |
| IREP | ≤ 0.2 |
| RFKS | 0.9 |
